# Reference: paper PMC4336329 (PLoS ONE, 2015)
# The whole screen tested about 310,000 compounds, of which about 2,200 (0.71%) showed an effect of 50% or more. Effects have a minus sign here. Some of the results follow.
# Target: human ether-à-go-go-related gene (hERG) potassium channel (human, UniProt Q12809)
# Assay: primary screen, population patch clamp on CHO cells stably expressing hERG
# Chain of human ether-à-go-go-related gene (hERG) potassium channel (Q12809 whole entry, looked up): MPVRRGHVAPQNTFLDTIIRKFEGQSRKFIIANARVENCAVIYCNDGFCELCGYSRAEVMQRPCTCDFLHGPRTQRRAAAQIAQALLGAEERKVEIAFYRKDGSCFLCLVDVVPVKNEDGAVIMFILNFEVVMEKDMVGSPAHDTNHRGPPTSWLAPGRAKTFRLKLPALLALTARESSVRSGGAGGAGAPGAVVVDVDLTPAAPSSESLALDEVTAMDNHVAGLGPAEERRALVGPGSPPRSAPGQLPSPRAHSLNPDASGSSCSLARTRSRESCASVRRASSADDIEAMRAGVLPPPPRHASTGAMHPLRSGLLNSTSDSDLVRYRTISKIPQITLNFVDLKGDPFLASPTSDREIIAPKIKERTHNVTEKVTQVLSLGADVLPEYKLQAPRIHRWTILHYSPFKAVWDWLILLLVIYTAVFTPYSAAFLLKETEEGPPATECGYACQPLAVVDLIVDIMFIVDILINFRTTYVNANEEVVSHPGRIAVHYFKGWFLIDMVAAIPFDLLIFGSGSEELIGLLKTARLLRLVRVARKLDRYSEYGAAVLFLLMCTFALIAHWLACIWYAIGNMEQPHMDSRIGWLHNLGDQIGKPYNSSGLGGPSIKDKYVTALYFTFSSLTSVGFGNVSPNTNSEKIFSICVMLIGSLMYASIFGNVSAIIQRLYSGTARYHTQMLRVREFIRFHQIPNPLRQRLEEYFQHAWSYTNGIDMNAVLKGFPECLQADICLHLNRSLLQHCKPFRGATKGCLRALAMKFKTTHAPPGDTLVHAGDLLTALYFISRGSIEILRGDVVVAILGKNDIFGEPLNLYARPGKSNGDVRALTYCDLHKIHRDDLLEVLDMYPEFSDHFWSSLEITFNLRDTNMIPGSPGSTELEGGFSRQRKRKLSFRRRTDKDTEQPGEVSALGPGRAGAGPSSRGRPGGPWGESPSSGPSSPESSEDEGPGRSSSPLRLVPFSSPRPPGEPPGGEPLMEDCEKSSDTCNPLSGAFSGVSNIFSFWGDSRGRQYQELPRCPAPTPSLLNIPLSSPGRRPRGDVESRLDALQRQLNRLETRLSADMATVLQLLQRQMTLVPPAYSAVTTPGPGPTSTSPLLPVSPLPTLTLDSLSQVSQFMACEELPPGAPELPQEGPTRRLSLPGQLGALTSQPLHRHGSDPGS
row,Compound,"hERG current change (%, negative = inhibition) at 1uM [%]"
1,Cc1cccc(CC(=O)NCCN2CCCCC2)c1,9.95
2,CCCCOc1ccc(C(=O)N=c2sccn2C)cc1OC,12.4
3,COc1cccc(CNC(=O)CCC2CCCN(C(=O)Cc3ccccc3F)C2)c1 (stereo not drawn),7.89
4,CN(Cc1nc(-c2ccncc2)no1)S(=O)(=O)c1ccccc1,3.79
5,Cc1nn(-c2ccccc2)c(C)c1C(=O)OCC(=O)Nc1ccccc1C(F)(F)F,2.4
6,Cc1ccc(C(=O)CCC(=O)NCc2ccccc2)cc1,6.11
7,COc1ccc(C2/C(=C(/O)c3ccc(Br)cc3)C(=O)C(=O)N2C)cc1 (stereo not drawn),6.5
8,COc1cc(C(=O)Oc2ccc(Br)cc2C(=S)N2CCOCC2)cc(OC)c1OC,3.16
9,COc1cc(C2C(C(N)=O)=C(C)Nc3nc(CCCO)nn32)cc(OC)c1OC (stereo not drawn),7.86
10,CCN1CCN(c2ccc(NC(=O)C(C)C)cc2Cl)CC1,0.089
11,CCn1ccnc1C(O)c1ccccc1OC (stereo not drawn),6.85
12,CC(C)C(O)P(=O)(OCc1ccccc1)c1ccc(N(C)C)cc1 (stereo not drawn),0.25
13,COc1ccc(CCN(C)CC(=O)Nc2ccc(F)c(Cl)c2)cc1OC,4.01
14,CC(C)N1C(=O)S/C(=C/c2ccc3c(c2)n(C)c(=O)n3C)C1=O,-5.59
15,CCN(CC(=O)Nc1cccc(OC)c1)C(=O)c1cccc(S(=O)(=O)N2CCc3ccccc32)c1,13.1
16,O=C(NCCOc1ccc(Cl)cc1)c1ccc2c(c1)OCCO2,8.3
17,CCCCC(=O)O[C@]1(C(=O)CO)CC[C@H]2[C@@H]3CCC4=CC(=O)CC[C@]4(C)[C@H]3[C@@H](O)C[C@@]21C,11.4
18,Cc1ccc(N(CC(=O)NC2CC2)S(=O)(=O)c2ccccc2)c(C)c1,9.45
19,CC(Cc1ccccc1)N/C=C1\CC(=O)NC1=O (stereo not drawn),0.821
20,N#CCc1cnc2ccccc2n1,7.74
21,Cc1ccc(NC(=O)CCOc2ccccc2)c(C)c1,16.1
22,COc1ccc(CN2CCN(Cc3ccco3)CC2)cc1OC.O=C(O)C(=O)O,8.06
23,CCOC(=O)c1c[nH]n(-c2ccccc2)c1=O,15.1

row,Compound,"hERG current change (%, negative = inhibition) at 1uM [%]"
1,CCn1cc(NC(=O)CCl)c(C)n1,6.53
2,COc1ccccc1NC(=O)Cn1nnc(-c2ccccc2NC(=O)c2ccco2)n1,14.7
3,Cc1ccc(S(=O)(=O)N2CCC(=O)N(CCOC(=O)Nc3ccccc3C)CC2)cc1,10.5
4,Cc1cccc(OCCCC(=O)O)c1,9.15
5,CCCC(=O)NC(c1ccc(N(C)C)cc1)c1c(O)ccc2ccccc12 (stereo not drawn),9.53
6,CN(Cc1nc(-c2cccs2)no1)CC(O)c1ccccc1 (stereo not drawn),-0.94
7,Cc1ccc(-n2c(C)cc(/C=N/NC(=O)CC3(C)OCCO3)c2C)c(C)c1,14
8,CC1CCCCN1c1ccc(N)cc1C(N)=O (stereo not drawn),4.3
9,O=C(c1ccc(Cl)c(S(=O)(=O)N2CCCCCC2)c1)N1CCCC1,-9.42
10,Cc1ccc(S(=O)(=O)NCc2ccccc2C)cc1,14.7
11,CC(NC(=O)c1cc(COc2ccc3ncccc3c2)on1)c1ccc(F)cc1 (stereo not drawn),13.5
12,CCC(=NCc1cccnc1)c1c(O)n(-c2ccc(Cl)cc2)c(=O)[nH]c1=O,2.75
13,CCCCNC(=O)NNc1nc(Cl)cc(C)c1C#N,14.7
14,O=C1CCC(C(=O)N2CCCCCC2)CN1CCc1ccc(Cl)cc1 (stereo not drawn),3.33
15,O=C(Nc1ccc(F)cc1)c1csc(Cc2ccccc2)n1,3.2
16,N#Cc1c(-c2ccccc2)ccn(Cc2ccc(Cl)cc2)c1=O,11.7
17,Cc1n[nH]c(C)c1S(=O)(=O)N1CCN(S(=O)(=O)c2ccccc2C#N)CC1,11.9
18,COc1cc(C2/C(=C(\O)c3ccc4c(c3)OCCO4)C(=O)C(=O)N2Cc2ccccc2)ccc1O (stereo not drawn),9.85
19,CCC(=O)Nc1c(OC(=O)CC)ccc2c(C)cc(=O)oc12,12.7
20,c1ccc2[nH]c(SCC3CCCCO3)nc2c1 (stereo not drawn),11.8
21,CCOC(=O)c1c(-c2ccc(OC)cc2)csc1NC(=O)CSc1ccccc1,0.854
22,N#Cc1ccccc1CSc1nc(N2CCCCC2)nc(N2CCCCC2)n1,11.1
